The values that follow come from article PMC4365481, “ICAM-5 affects spine maturation by regulation of NMDA receptor binding to α-actinin” (Biology Open, 2015).

For the assay, the target named is T1, GST-α-actinin R2 (UniProt P05094 387-510).
T1 construct: alpha-actinin, spectrin repeat R2 of the rod domain; construct as described in Gilmore et al., 1994 and Nyman-Huttunen et al., 2006; also called R2 domain; GST-R2
In words: pull-down; competition: 2 µg GST-α-actinin R2 on glutathione-sepharose, cross-linked with dimethyl pimelimidate; 1 ml of 250 nM ICAM-5 cytoplasmic domain with increasing amounts of His6-GluN1 cytoplasmic domain, RT 1 h; bound ICAM-5 by western blotting, band intensities fitted to an exponential decay curve. The conditions noted are these: both partners purified.

GST-α-actinin R2, sequence (P05094 387-510): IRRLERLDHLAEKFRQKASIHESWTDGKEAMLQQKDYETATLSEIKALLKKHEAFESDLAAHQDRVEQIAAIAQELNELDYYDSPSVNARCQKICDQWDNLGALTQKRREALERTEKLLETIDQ

B1: His6-GluN1 cytoplasmic domain ([…]) (domain or fragment)
chain: not shown
notes: NMDA receptor subunit GluN1 (NR1), cytoplasmic domain, […]; also called GluN1 cytoplasmic peptide; source: E. coli BL21(DE3)pLysS, pET21b, purified; not shown: His6, C-terminal, kept
B1 registered an IC50 of roughly 340 nM.
